Assay results from patent US20130296417A1, “Theaflavin Compositions, Production, and Method to Control Physiological Disorders in Mammals” (JANGSU DEHE BIO-TECH CO., LTD., priority 2010, published 2013).
Values after ≈ are worked out from the molar mass of the structure shown.

Columns and labels:
[1] = system: Influenza virus A/PR/8/34 (H1N1)
[2] = target: neuraminidase (NA) of influenza virus (H1N1) (Influenza A virus, UniProt P03468); test: Neuraminidase (NA) inhibitory activity, fluorogenic substrate 4-MUNANA (Example I)
Sequence of UniProt P03468 (P03468 whole entry): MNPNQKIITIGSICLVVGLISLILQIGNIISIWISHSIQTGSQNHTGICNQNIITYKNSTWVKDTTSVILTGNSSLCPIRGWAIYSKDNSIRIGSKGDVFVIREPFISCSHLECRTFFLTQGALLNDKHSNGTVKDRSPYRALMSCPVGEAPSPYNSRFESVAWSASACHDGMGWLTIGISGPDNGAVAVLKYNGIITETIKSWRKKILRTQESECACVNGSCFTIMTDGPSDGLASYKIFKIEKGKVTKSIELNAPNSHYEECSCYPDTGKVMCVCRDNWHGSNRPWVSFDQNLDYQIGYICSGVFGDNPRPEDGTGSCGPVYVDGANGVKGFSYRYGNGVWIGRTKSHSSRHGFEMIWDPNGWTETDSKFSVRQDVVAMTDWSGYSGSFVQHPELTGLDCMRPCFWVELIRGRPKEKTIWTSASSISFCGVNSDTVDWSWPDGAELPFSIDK

SMILES	Inhibitory Rate (%) ([1]; 50 μg/ml, CPE, MDCK, H1N1)	IC50 ([1]; CPE, MDCK, H1N1 cellular level)	CC50/IC50 ([1]; Therapeutic Index (TI))	IC50 [2]	Inhibition Rate (%) ([2]; 40 μg/ml)	inhibition at 0.4 µg/mL ([2]; 0.4 μg/ml, read-out: Inhibition Rate (%))
O=C(O[C@@H]1Cc2c(O)cc(O)cc2O[C@@H]1c1cc(O)c(O)c(O)c1)c1cc(O)c(O)c(O)c1 [EGCG, (−)-epigallocatechin-3-gallate]	56.85%	42.05 µg/mL (≈ 91.7 µM)	>2.38	35.95 µg/mL (≈ 78.4 µM)	54.96%	
CCOC(=O)C1=C[C@@H](OC(CC)CC)[C@H](NC(C)=O)[C@@H](N)C1 [Oseltamivir]						93.1%
